Experiment: soluble fraction after stress (log2 fold change); higher = more stays soluble; pooled small domains, quantitative proteomics
Details: stress: 75 degC
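Further: 20 min heating vs room temperature control held 20 min.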

Sequence | soluble fraction (log2)
HMDSLPEPIKRLLNVLGDKKLSAAEIMEQLGLSHRATFRKNYLNPALELGLIEMTIPDKPNSRNQKYIKKQ | -0.201
HMETLAWADTAQNGLDRLVAAQPILVRISAAKRLRDAAEQIARSAGVATVEIEHVQHASDSLQFGDA | -0.253
HMGPSEPVIVKWFNRLKGYGFVTRPDGEADIFVHMETVRRAGLAELMPGQTLHARITEGQKGPLVVALGE | -1.71
HMKMVEGKVKWFNDSKGFGFIEQDGGKDVFVHHSAIQAEGFKSLAEGERVSFDVVAGPKGPAAANVRK | -0.472
HMLSQEALEFVRSLVDRPMVIFTTAYSEYAVEGFKLDAVDYLLKPFSFADFSRSAGKANSLYELRHN | -0.533
HMNNAVITINNLVKRFPVGGDFFTALKDIDLTLNKGEFTGLIGPSGSGKTTLLNIIGGLDSPTEGQVSV | -0.0956
HMQFGLDQVAHQRAHTLSGGMQRRLSIAMGLITNPKILFLDEPTVGLDVLARHELWHTLTALK | 0.221
HMSDMGRDEAYEILGLARDSSEAEIREAHKKLMINNHPDHGGSAYLATKINRARDVLLDELNFF | -0.0681
HMSDYYQDLGVERSATPEEIKRAYRRLARQLHPDVNPGAEAEEQFKTVSRAYEVLSDADKRRNYDLGVDP | 0.116
HMVSSEQHYTVLGITKQATDTEVKKAYRKMAVKYHPDKLQGVSEDIKKLSEEKFLKVKEAYEQIMKGR | -0.296

Reference: the domain aggregation screens of Martell et al. (2025)
